Assay results taken from PubChem BioAssay AID588453 (National Center for Advancing Translational Sciences (NCATS), 2011).
“And” between values parts separate entries of the source, which are not always exact repeats. Identical values can stand only once. Screen size: about 390,000 compounds; about 4,000 (1%) were called active. This list was built around the results that the source calls inconclusive (neither active nor inactive); the mix of calls is not that of the screen. Calls come from the whole dose curve; as a rule, active = well fitted inhibition curve with a large enough effect; inconclusive = small, poorly fitted or top-dose-only effect; inactive = no such curve, though single readings can be large or run the other way. Where the call is inconclusive, the potency comes from a doubtful curve fit.

Target: Thioredoxin reductase 1, cytoplasmic (Rattus norvegicus) (UniProt O89049)
Assay: qHTS Assay for Inhibitors of Mammalian Selenoprotein Thioredoxin Reductase 1 (TrxR1): qHTS; note: nearly all actives have a fitted effect of over 65% in size
Settings: recombinant rTrxR1, NADPH fluorescence consumption, selenite substrate; series mostly up to 114 µM
Method in brief: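 Rat TrxR1 (90 nM in the dispensed reagent) was pre-reduced with 400 uM NADPH for 5 min at room temperature, then incubated with compound for 15 min. After 400 uM selenite was added, NADPH fluorescence (Ex 340/Em 450 nm) was followed for 8 min.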
Potency is the fitted concentration of half-maximal effect; tags give direction and shape of the fitted curve.

Chain of UniProt O89049 (O89049 whole entry, looked up): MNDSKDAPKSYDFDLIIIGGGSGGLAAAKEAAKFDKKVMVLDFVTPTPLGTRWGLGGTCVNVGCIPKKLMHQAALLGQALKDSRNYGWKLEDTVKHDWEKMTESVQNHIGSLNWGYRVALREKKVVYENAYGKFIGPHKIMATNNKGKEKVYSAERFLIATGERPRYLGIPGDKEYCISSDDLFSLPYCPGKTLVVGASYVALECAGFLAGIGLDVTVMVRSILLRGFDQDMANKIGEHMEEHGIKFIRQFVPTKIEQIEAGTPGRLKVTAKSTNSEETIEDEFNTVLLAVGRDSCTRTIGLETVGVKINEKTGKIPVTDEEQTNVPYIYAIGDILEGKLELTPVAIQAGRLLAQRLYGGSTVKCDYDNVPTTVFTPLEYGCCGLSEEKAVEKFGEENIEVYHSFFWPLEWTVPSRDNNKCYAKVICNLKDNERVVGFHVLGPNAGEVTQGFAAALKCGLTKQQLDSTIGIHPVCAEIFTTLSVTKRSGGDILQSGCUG

| Compound | Potency |
| --- | --- |
| C#CCN[C@H](C)Cc1ccccc1 | inactive |
| CCOc1ccc(-n2c(O)c(C=NCCN3CCNCC3)c(=O)[nH]c2=O)cc1 | inconclusive: 56.2 µM [inhibitor, single point] |
| CCCN1CCc2cc(O)cc3c2[C@H]1Cc1ccc(O)c(O)c1-3 | inconclusive: 22.4 µM [inhibitor, full curve] and inconclusive: 20 µM [inhibitor, full curve] and inconclusive: 947 nM [inhibitor, full curve] |
| Cc1nc2c(=O)n(C)c(=O)nc-2n(C)n1 | active: 50.1 µM |
| C#CCOCCOCCOCCNc1nc(N2CCN(C(=O)CCCCCCCCCCNC(=O)[C@H]([C@@H](C)CC)n3cc(CCCCN=C(N)N)nn3)CC2)nc(N2CCN(C(=O)CCCCCCCCCCNC(=O)[C@H](CO)n3cc(CCCCCN)nn3)CC2)n1 | inconclusive: 50.1 µM [inhibitor, partial curve] |
| O=C1NC(=O)N(Cc2ccco2)C(=O)/C1=C\c1cccn1CCOc1ccccc1 | inconclusive: 44.7 µM [inhibitor, partial curve] |
| CC(=O)Nc1ccc(C(=O)OCC(=O)Nc2ccc(Cl)cc2C(=O)c2ccccc2)cc1 | inactive |
| COC(=O)C1=Nc2ccccc2/C1=C\c1c(O)n(C)c(=O)n(C)c1=O | inconclusive: 11.2 µM [inhibitor, full curve] |
| O=C(Oc1ccc([N+](=O)[O-])cc1)N1CCN(/[N+]([O-])=N/Oc2ccc([N+](=O)[O-])cc2[N+](=O)[O-])CC1 | inconclusive: 31.6 µM [inhibitor, partial curve] |
| O=C(c1ccc(CNS(=O)(=O)c2ccccc2)cc1)N1CCC2(CC1)OCCO2 | inactive |
| COc1cc(/C=C2\C(=O)NC(=O)N(c3ccccc3)C2=O)c([N+](=O)[O-])cc1OC | active: 7.08 µM |
| COC(=O)C(O)(c1ccc(NC(=S)NC(=O)c2ccccc2)cc1)C(F)(F)F (configuration not stated) | inconclusive: 10 µM [inhibitor, full curve] |
| O=C1NC(=O)N(CCC2=CCCCC2)C(=O)/C1=C/c1cccs1 | active: 7.94 µM |
| Cc1c2ccncc2c(C)c2c1[nH]c1ccccc12 | inconclusive: 25.1 µM [inhibitor, full curve] and inconclusive: 23.8 µM [inhibitor, partial curve] |
| CC(C)CS(=O)(=O)C1=NN2C(=N)/C(=C\c3ccc(OC(=O)c4ccco4)cc3)C(=O)N=C2S1 | inconclusive: 35.5 µM [inhibitor, full curve] |
| COc1cc2nc(N3CCCN(C)CC3)nc(N(C)C3CCN(C)CC3)c2cc1OC | inconclusive: 79.4 µM [inhibitor, partial curve] |
| CCOP(=O)(OCC)/C(=N/OC(=O)c1ccc(Cl)cc1Cl)C(N)=O | inconclusive: 14.1 µM [inhibitor, full curve] |
| O=C1NC(=O)N(c2ccccc2)C(=O)/C1=C/c1ccc([N+](=O)[O-])s1 | active: 22.4 µM |
| COC(/C(C)=C/C=C/C(C)=C/c1coc(C)n1)C(C)C1CC(O)C2(C)OC2C=CC(C)C2CC(CC(=O)O2)CC2OC2C(=O)O1 (configuration not stated) | active: 10 µM |
| CC(=NCC1CCCO1)c1c(O)n(-c2ccc(C)cc2)c(=O)[nH]c1=O (configuration not stated) | inactive |
| COC(=O)C1=C(C(=O)OC)C2OC1c1cc3ccccc3cc12 | active: 2.51 µM |

| Compound | Potency |
| --- | --- |
| O=C1NC(=O)N(c2ccccc2)C(=O)/C1=C/C=C/c1ccco1 | inconclusive: 56.2 µM [inhibitor, partial curve, poor fit] |
| CN1C(=O)C(=Cc2ccc(OCC(=O)Nc3ccccc3)cc2)C(=O)N(C)C1=O | inconclusive: 20 µM [inhibitor, full curve] |
| Cc1ccccc1CCNCc1cc2cccc(C)c2[nH]c1=O | inactive |
| CC1=C(C(=O)OC(C)C)[C@]2(C(=O)N(CC(N)=O)c3ccccc32)C(C#N)=C(N)O1 | inconclusive: 35.5 µM [inhibitor, single point] |
| O=C(O)CCn1cc(C=C2C(=O)NC(=S)NC2=O)c(-c2cccc(Cl)c2)n1 | inconclusive: 17.8 µM [inhibitor, partial curve, poor fit] |
| CN1CC[C@@]2(C)c3cc(OC(=O)Nc4ccccc4)ccc3N(C)[C@@H]12 | inconclusive: 1.26 µM [inhibitor, partial curve, poor fit] |
| CC(C)c1c(CN(C)C(C)Cc2ccccc2)n(C)n(-c2ccccc2)c1=O (configuration not stated) | inactive |
| CN1CCN(Cc2cc(C(C)(C)C)c(O)c(C(C)(C)C)c2)CC1 | inconclusive: 10 µM [inhibitor, full curve] |
| CN1C(=O)C(=Cc2c(OCc3cnc(Cl)s3)ccc3ccccc23)C(=O)N(C)C1=O | inconclusive: 22.4 µM [inhibitor, full curve] |
| O=C1NC(=S)NC(=O)C12C(c1ccccc1)NC(=S)NC2c1ccccc1 (configuration not stated) | inconclusive: 56.2 µM [inhibitor, partial curve, poor fit] |
| O=C(O)C12C3CCCC1C32c1ccccc1 (configuration not stated) | inactive |
| OCC#CC[N+]1(CC#Cc2ccccc2)CCCC1 | inactive |
| COc1ccc(-c2cc(=NCC(=O)O)c3ccccc3o2)cc1 | inconclusive: 89.1 µM [inhibitor, single point] |
| Cc1cc(N2CCCCC2)ccc1C=C1C(=O)N(C)C(=S)N(C)C1=O | active: 11.2 µM |
| COc1cc(/C=C/[N+](=O)[O-])ccc1OC(=O)c1cccnc1 | inconclusive: 0.794 µM [inhibitor, full curve, poor fit] |
| CC[N+](C)(C)c1cccc(O)c1 | inconclusive: 4.74 µM [inhibitor, partial curve] |
| O=C1NC(=O)N(Cc2cccs2)C(=O)/C1=C/c1ccc(N2CCOCC2)cc1 | inconclusive: 17.8 µM [inhibitor, partial curve, poor fit] |
| CC(=NCCN1CCCCC1)c1c(O)[nH]c(=O)[nH]c1=O | inconclusive: 70.8 µM [inhibitor, partial curve] |
| C=CCN1C(=O)NC(=O)/C(=C/c2ccc(N(C)C)c(Br)c2)C1=O | inconclusive: 31.6 µM [inhibitor, full curve, poor fit] |
| CCCCCCOC(=O)c1ccccc1N | inactive |
| COc1ccc2c(c1OC)C(=O)OC2c1c(O)n(Cc2ccc(F)cc2)c(=O)[nH]c1=O (configuration not stated) | inconclusive: 2.51 µM [inhibitor, partial curve] |

| Compound | Potency |
| --- | --- |
| Cc1ccc(S(=O)(=O)N[C@@H](CCCCN)C(=O)CCl)cc1 | inconclusive: 56.2 µM [inhibitor, partial curve, poor fit] and inconclusive: 29.9 µM [inhibitor, partial curve, poor fit] and inconclusive: 21.2 µM [inhibitor, partial curve] |
| O=C(Nc1ccc(F)c(Cl)c1)N(Cc1ccc2c(c1)OCO2)C1CCN(Cc2ccccc2)CC1 | inactive |
| Cc1ccc2c(c1Cl)NC(C(=O)O)C1CC(Sc3ccccc3[N+](=O)[O-])C(Cl)C21 (configuration not stated) | inconclusive: 20 µM [inhibitor, single point] |
| O=C1NC(=S)NC(=O)C1=Cc1ccc(OCC(=O)N2CCCC2)cc1 | active: 5.62 µM |
| CC1=C(C/C(C)=C/c2ccccc2)/C(=C/CO)[C@H](O)[C@](C)(O)C12CC2 | inconclusive: 89.1 µM [inhibitor, partial curve, poor fit] |
| COC(=O)C1=C(c2ccc(Cl)c(C(F)(F)F)c2)C[C@@H]2CC[C@H]1N2C(=O)NCCCOC(C)C | inactive |
| O=C1NC(=O)N(Cc2ccccc2)C(=O)/C1=C/C=C/c1ccco1 | inconclusive: 31.6 µM [inhibitor, partial curve] |
| O=c1[nH]c(=S)n(C2CC2)c(O)c1/C=N/Nc1cccc2ccccc12 | inconclusive: 50.1 µM [inhibitor, partial curve, poor fit] |
| CC(=O)OCC1=C(C(=O)O)N2C(=O)[C@@H](NC(=O)CCC[C@@H](N)C(=O)O)[C@H]2SC1 | inactive |
| COc1ccccc1N1C(=O)NC(=O)/C(=C/c2ccc3c4c(cccc24)CC3)C1=O | active: 8.91 µM |
| COc1ccc(N2C(=O)NC(=O)/C(=C/c3cccc(OC(=O)c4cccs4)c3)C2=O)cc1Cl | active: 10 µM |
| CN1C(=O)C(=Cc2ccccc2OCc2ccc(C(=O)O)cc2)C(=O)N(C)C1=O | inconclusive: 12.6 µM [inhibitor, partial curve] |
| CN(C)c1ccc(/C=C/C=C/c2sc3ccccc3[n+]2C)cc1 | inactive |
| CCCCC(=O)N/N=C/c1c(O)n(CCc2ccccc2)c(=O)[nH]c1=O | inactive |
| COc1ccc(/C=C2\C(=O)NC(=S)N(C)C2=O)cc1C | inconclusive: 22.4 µM [inhibitor, single point] |
| COc1cc(/C=C2/C(=O)NC(=O)N(c3ccc(C)cc3)C2=O)cc(OC)c1OC | inconclusive: 20 µM [inhibitor, single point] |
| C[C@]12CC[C@H](N)CC1=CCC1C2CC[C@@]2(C)C1CC[C@@H]2O (some centres not stated) | inconclusive: 28.2 µM [inhibitor, partial curve] |
| COCCCNC(=O)c1c(N)n(Cc2ccco2)c2nc3ccccc3nc12 | inconclusive: 20 µM [inhibitor, single point] |
| CN1CCN(c2cc(N3CCNCC3)ccc2[N+](=O)[O-])CC1 | inconclusive: 56.2 µM [inhibitor, partial curve, poor fit] |
| N#Cc1c(Cl)nc(Cl)c2c1CCN(Cc1ccccc1)C2 | inconclusive: 89.1 µM [inhibitor, single point] |
